{
  "source": "the antibiotic and cytotoxicity screens of Wong et al. (2023)",
  "key": {"HSkMC": {"system": "HSkMC", "assay": "cytotoxicity call (relative viability < 0.9)", "conditions": "10 µM"}, "HepG2": {"system": "HepG2", "assay": "cytotoxicity call (relative viability < 0.9)", "conditions": "10 µM"}, "S. aureus RN4220": {"system": "S. aureus RN4220", "assay": "growth inhibition call (relative growth <= 0.2)", "conditions": "50 µM"}},
  "note": "Some of the results follow.",
  "data": [
    {"smiles": "C[C@@H]1CCCCO[C@H](CN(C)Cc2ccc(C(F)(F)F)cc2)[C@@H](C)CN([C@@H](C)CO)C(=O)c2cc(NS(C)(=O)=O)ccc2O1", "values": [
      {"measurement": "cytotoxicity call", "setting": "HSkMC", "value": "inactive"},
      {"measurement": "cytotoxicity call", "setting": "HepG2", "value": "inactive"},
      {"measurement": "growth inhibition call", "setting": "S. aureus RN4220", "value": "inactive"}
    ]},
    {"smiles": "C[C@@H]1CN([C@H](C)CO)S(=O)(=O)c2ccc(-c3cccc(C#N)c3)cc2O[C@@H]1CN(C)C(=O)c1ccncc1", "values": [
      {"measurement": "cytotoxicity call", "setting": "HSkMC", "value": "inactive"},
      {"measurement": "cytotoxicity call", "setting": "HepG2", "value": "inactive"},
      {"measurement": "growth inhibition call", "setting": "S. aureus RN4220", "value": "inactive"}
    ]},
    {"smiles": "C[C@H]1CCCCO[C@H](CN(C)C(=O)Nc2ccc3c(c2)OCO3)[C@@H](C)CN([C@@H](C)CO)C(=O)c2cc(NS(=O)(=O)c3ccc(Cl)cc3)ccc2O1", "values": [
      {"measurement": "cytotoxicity call", "setting": "HSkMC", "value": "inactive"},
      {"measurement": "cytotoxicity call", "setting": "HepG2", "value": "active"},
      {"measurement": "growth inhibition call", "setting": "S. aureus RN4220", "value": "inactive"}
    ]},
    {"smiles": "C[C@@H]1CN([C@H](C)CO)C(=O)c2cc(C3=CCCC3)cnc2O[C@@H]1CN(C)C(=O)Nc1ccc(C(F)(F)F)cc1", "values": [
      {"measurement": "cytotoxicity call", "setting": "HSkMC", "value": "inactive"},
      {"measurement": "cytotoxicity call", "setting": "HepG2", "value": "active"},
      {"measurement": "growth inhibition call", "setting": "S. aureus RN4220", "value": "inactive"}
    ]},
    {"smiles": "CCCCn1c(SCC(N)=O)nc2c1c(=O)n(C)c(=O)n2C", "values": [
      {"measurement": "cytotoxicity call", "setting": "HSkMC", "value": "inactive"},
      {"measurement": "cytotoxicity call", "setting": "HepG2", "value": "inactive"},
      {"measurement": "growth inhibition call", "setting": "S. aureus RN4220", "value": "inactive"}
    ]},
    {"smiles": "C[C@@H](O)C#Cc1cnc2c(c1)C(=O)N([C@@H](C)CO)C[C@H](C)[C@@H](CN(C)Cc1cncnc1)O2", "values": [
      {"measurement": "cytotoxicity call", "setting": "HSkMC", "value": "inactive"},
      {"measurement": "cytotoxicity call", "setting": "HepG2", "value": "inactive"},
      {"measurement": "growth inhibition call", "setting": "S. aureus RN4220", "value": "inactive"}
    ]},
    {"smiles": "C[C@@H]1CCCCO[C@@H](CN(C)Cc2ccncc2)[C@@H](C)CN([C@@H](C)CO)C(=O)c2cc(NC(=O)Nc3cccc4ccccc34)ccc2O1", "values": [
      {"measurement": "cytotoxicity call", "setting": "HSkMC", "value": "inactive"},
      {"measurement": "cytotoxicity call", "setting": "HepG2", "value": "inactive"},
      {"measurement": "growth inhibition call", "setting": "S. aureus RN4220", "value": "inactive"}
    ]},
    {"smiles": "C[C@@H]1CN([C@H](C)CO)C(=O)c2cc(NC(=O)Cn3cnnn3)ccc2O[C@@H]1CN(C)C(=O)Nc1cccc2ccccc12", "values": [
      {"measurement": "cytotoxicity call", "setting": "HSkMC", "value": "inactive"},
      {"measurement": "cytotoxicity call", "setting": "HepG2", "value": "inactive"},
      {"measurement": "growth inhibition call", "setting": "S. aureus RN4220", "value": "inactive"}
    ]},
    {"smiles": "CN(C)C(=O)c1ccc(-c2cccc(-c3nc(C(=O)NCc4ccccc4)cc4c3[C@@H](CCO)N([S@](=O)C(C)(C)C)C4)c2)cc1", "values": [
      {"measurement": "cytotoxicity call", "setting": "HSkMC (human skeletal muscle cells)", "value": "inactive"},
      {"measurement": "cytotoxicity call", "setting": "HepG2", "value": "inactive"},
      {"measurement": "growth inhibition call", "setting": "S. aureus RN4220", "value": "inactive"}
    ]}
  ]
}
